The supplement of paper PMC4967469
The IC50 comes from the fitted curve, where viability falls to half of the control; a fit beyond the top or the lowest dose is shown as a bound at that dose. For AUC the same curve is integrated over the 256-fold range of doses and scaled to a fraction; it is 1 without any effect and falls as sensitivity rises. For part of these data: A top dose marked as inferred comes from the curve model; the source does not state it. For part of these data: Drugs with an entry number were screened twice under separate entries, and the two screens often disagree.

How the values were obtained:
Assay in all cases: Viability of human cancer cell lines after 72 h of drug (GDSC screen)
PD-0332991 = compound: CC(=O)c1c(C)c2cnc(Nc3ccc(N4CCNCC4)cn3)nc2n(C2CCCC2)c1=O [PD-0332991]
Description: (§1)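 Human cancer cell lines in 384-well plates, medium with 10% serum, drug for 72 h over a 256-fold dose range (nine 2-fold or five 4-fold steps up to the top dose). Adherent lines were fixed and stained with the nucleic acid dye Syto60, suspension lines read with resazurin; signal relative to control wells, capped at 0 and 100%. One two-parameter sigmoid per drug and line, fitted in a mixed model over all curves with the slope shared within a line.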

ZM-447439 = compound: COc1cc2c(Nc3ccc(NC(=O)c4ccccc4)cc3)ncnc2cc1OCCCN1CCOCC1 [ZM-447439]; settings: top dose inferred
Description: as §1

AZD6244 = compound: Cn1cnc2c(F)c(Nc3ccc(Br)cc3Cl)c(C(=O)NOCCO)cc21 [AZD6244]; settings: screen: GDSC drug entry 1062
Description: as §1

Cell Line	AUC (PD-0332991)	IC50 (PD-0332991)	AUC (ZM-447439)	IC50 (ZM-447439)	AUC (AZD6244)	IC50 (AZD6244)
JHH-4 (liver, adherent, top dose 4 µM)	0.844	2.84 µM	0.944	> 4 µM	0.987	> 4 µM
JHH-7 (liver, adherent, top dose 4 µM)	0.943	> 4 µM	0.939	> 4 µM	0.868	3.28 µM
JHOS-4 (ovary, adherent, top dose 4 µM)	0.98	> 4 µM	0.98	> 4 µM	0.98	> 4 µM
JHU-022 (head and neck, adherent, top dose 4 µM)	0.738	1.46 µM	0.881	> 4 µM	0.915	> 4 µM
JHU-029 (head and neck, adherent, top dose 4 µM)	0.846	3.99 µM	0.908	> 4 µM	0.973	> 4 µM
JJN-3 (haematopoietic neoplasm, suspension, top dose 4 µM)	0.993	> 4 µM	0.89	3.15 µM	0.986	> 4 µM
JM1 (B-cell lymphoma, suspension, top dose 4 µM)	0.801	1.64 µM	0.887	3.37 µM	0.989	> 4 µM
JSC-1 (B-cell lymphoma, suspension, top dose 4 µM)	0.91	> 4 µM	0.875	3.88 µM	0.984	> 4 µM
JURL-MK1 (chronic myeloid leukaemia, suspension, top dose 4 µM)	0.504	0.256 µM	0.882	> 4 µM	0.924	> 4 µM
JVM-2 (lymphoid neoplasm, suspension, top dose 4 µM)	0.856	> 4 µM	0.885	> 4 µM	0.965	> 4 µM
JVM-3 (lymphoid neoplasm, suspension, top dose 4 µM)	0.863	3.57 µM	0.874	> 4 µM	0.962	> 4 µM
JiyoyeP-2003 (Burkitt lymphoma, suspension, top dose 4 µM)	0.968	> 4 µM	0.99	> 4 µM	0.986	> 4 µM
K2 (melanoma, adherent, top dose 4 µM)	0.928	> 4 µM	0.978	> 4 µM	0.974	> 4 µM
KARPAS-45 (lymphoblastic leukaemia, suspension, top dose 4 µM)	0.583	0.406 µM	0.632	0.541 µM	0.95	> 4 µM
KARPAS-231 (B-cell leukaemia, suspension, top dose 4 µM)	0.905	3.16 µM	0.771	1.2 µM	0.992	> 4 µM
KARPAS-299 (anaplastic large cell lymphoma, suspension, top dose 4 µM)	0.877	2.89 µM	0.966	> 4 µM	0.975	> 4 µM
KARPAS-422 (B-cell lymphoma, suspension, top dose 4 µM)	0.931	> 4 µM	0.953	> 4 µM	0.98	> 4 µM
KARPAS-620 (haematopoietic neoplasm, suspension, top dose 4 µM)	0.967	> 4 µM	0.95	> 4 µM	0.986	> 4 µM
KARPAS-1106P (B-cell lymphoma, suspension, top dose 4 µM)	0.92	> 4 µM	0.971	> 4 µM	0.985	> 4 µM
KATOIII (stomach, semi-adherent, top dose 4 µM)	0.835	2.33 µM	0.928	> 4 µM	0.99	> 4 µM
KCL-22 (chronic myeloid leukaemia, suspension, top dose 4 µM)	0.921	> 4 µM	0.989	> 4 µM	0.991	> 4 µM

Cell Line	AUC (PD-0332991)	IC50 (PD-0332991)	AUC (ZM-447439)	IC50 (ZM-447439)	AUC (AZD6244)	IC50 (AZD6244)
KE-37 (lymphoblastic leukaemia, suspension, top dose 4 µM)	0.518	0.276 µM	0.726	0.909 µM	0.981	> 4 µM
KELLY (neuroblastoma, adherent, top dose 4 µM)	0.368	0.112 µM	0.852	2.66 µM	0.952	> 4 µM
KG-1 (acute myeloid leukaemia, suspension, top dose 4 µM)	0.933	> 4 µM	0.952	> 4 µM	0.988	> 4 µM
KGN (ovary, adherent, top dose 4 µM)	0.785	2.12 µM	0.871	> 4 µM	0.888	> 4 µM
KINGS-1 (glioma, adherent, top dose 4 µM)	0.826	3.77 µM	0.925	> 4 µM	0.884	> 4 µM
KLE (endometrium, adherent, top dose 4 µM)	0.976	> 4 µM	0.949	> 4 µM	0.95	> 4 µM
KM12 (large intestine, adherent, top dose 4 µM)	0.732	1.22 µM	0.873	> 4 µM	0.799	2.11 µM
KM-H2 (Hodgkin lymphoma, suspension, top dose 4 µM)	0.99	> 4 µM	0.99	> 4 µM	0.984	> 4 µM
KMH-2 (thyroid, adherent, top dose 4 µM)	0.99	> 4 µM	0.902	> 4 µM	0.45	0.185 µM
KMOE-2 (acute myeloid leukaemia, suspension, top dose 4 µM)	0.912	> 4 µM	0.901	> 4 µM	0.912	> 4 µM
KMRC-1 (kidney, adherent, top dose 4 µM)	0.871	> 4 µM	0.939	> 4 µM	0.871	> 4 µM
KMRC-20 (kidney, adherent, top dose 4 µM)	0.864	3.57 µM	0.956	> 4 µM	0.939	> 4 µM
KMS-11 (myeloma, suspension, top dose 4 µM)	0.985	> 4 µM	0.988	> 4 µM	0.97	> 4 µM
KNS-42 (glioma, adherent, top dose 4 µM)	0.813	2.7 µM	0.94	> 4 µM	0.971	> 4 µM
KNS-62 (lung squamous cell carcinoma, adherent, top dose 4 µM)	0.776	2.38 µM	0.953	> 4 µM	0.959	> 4 µM
KNS-81-FD (glioma, adherent, top dose 4 µM)	0.905	> 4 µM	0.934	> 4 µM	0.9	> 4 µM
KOPN-8 (B-cell leukaemia, suspension, top dose 4 µM)	0.667	0.676 µM	0.787	1.48 µM	0.976	> 4 µM
KP-1N (pancreas, adherent, top dose 4 µM)	0.878	> 4 µM	0.967	> 4 µM	0.955	> 4 µM
KP-2 (pancreas, adherent, top dose 4 µM)	0.795	2.03 µM	0.959	> 4 µM	0.601	0.484 µM
KP-3 (pancreas, adherent, top dose 4 µM)	0.827	3.1 µM	0.982	> 4 µM	0.871	> 4 µM
KP-N-YN (neuroblastoma, adherent, top dose 4 µM)	0.985	> 4 µM	0.907	> 4 µM	0.985	> 4 µM

Cell Line	AUC (PD-0332991)	IC50 (PD-0332991)	AUC (ZM-447439)	IC50 (ZM-447439)	AUC (AZD6244)	IC50 (AZD6244)
KS-1 (glioma, adherent, top dose 4 µM)	0.795	2.39 µM	0.883	> 4 µM	0.847	> 4 µM
KU812 (chronic myeloid leukaemia, suspension, top dose 4 µM)	0.898	> 4 µM	0.878	3.45 µM	0.454	0.19 µM
KU-19-19 (bladder, adherent, top dose 4 µM)	0.839	2.73 µM	0.957	> 4 µM	0.767	1.48 µM
KURAMOCHI (ovary, adherent, top dose 4 µM)	0.979	> 4 µM	0.983	> 4 µM	0.984	> 4 µM
KY821 (leukaemia, suspension, top dose 4 µM)	0.827	2.04 µM	0.923	> 4 µM	0.492	0.239 µM
KYAE-1 (oesophagus, suspension, top dose 4 µM)	0.975	> 4 µM	0.912	> 4 µM	0.978	> 4 µM
KYSE-50 (oesophagus, adherent, top dose 4 µM)	0.928	> 4 µM	0.925	> 4 µM	0.99	> 4 µM
KYSE-140 (oesophagus, adherent, top dose 4 µM)	0.904	> 4 µM	0.921	> 4 µM	0.984	> 4 µM
KYSE-150 (oesophagus, adherent, top dose 4 µM)	0.717	0.994 µM	0.885	> 4 µM	0.895	> 4 µM
KYSE-220 (oesophagus, adherent, top dose 4 µM)	0.93	> 4 µM	0.89	> 4 µM	0.913	> 4 µM
KYSE-410 (oesophagus, adherent, top dose 4 µM)	0.687	0.869 µM	0.849	3.32 µM	0.95	> 4 µM
KYSE-450 (oesophagus, adherent, top dose 4 µM)	0.936	> 4 µM	0.942	> 4 µM	0.988	> 4 µM
KYSE-510 (oesophagus, adherent, top dose 4 µM)	0.913	> 4 µM	0.858	2.44 µM	0.976	> 4 µM
KYSE-520 (oesophagus, adherent, top dose 4 µM)	0.767	2.01 µM	0.956	> 4 µM	0.932	> 4 µM
L-428 (Hodgkin lymphoma, suspension, top dose 4 µM)	0.986	> 4 µM	0.992	> 4 µM	0.992	> 4 µM
L-540 (Hodgkin lymphoma, suspension, top dose 4 µM)	0.95	> 4 µM	0.913	> 4 µM	0.988	> 4 µM
L-1236 (Hodgkin lymphoma, suspension, top dose 4 µM)	0.992	> 4 µM	0.985	> 4 µM	0.992	> 4 µM
LAMA-84 (chronic myeloid leukaemia, suspension, top dose 4 µM)	0.53	0.303 µM	0.82	2.35 µM	0.902	> 4 µM
LAN-6 (neuroblastoma, adherent, top dose 4 µM)	0.793	2.23 µM	0.939	> 4 µM	0.747	1.49 µM
LB373-MEL-D (melanoma, adherent, top dose 4 µM)	0.974	> 4 µM	0.99	> 4 µM	0.979	> 4 µM
LB647-SCLC (small cell lung carcinoma, semi-adherent, top dose 4 µM)	0.977	> 4 µM	0.853	3.73 µM	0.984	> 4 µM
